# Laboratory results: the antibiotic and cytotoxicity screens of Wong et al. (2023)
# This is one part of the list.
# Tests used:
# HSkMC = human skeletal muscle cells; assay: cytotoxicity call (relative viability < 0.9); conditions: 10 µM
# HepG2 = assay: cytotoxicity call (relative viability < 0.9); conditions: 10 µM
# S. aureus RN4220 = assay: growth inhibition call (relative growth <= 0.2); conditions: 50 µM
SMILES,cytotoxicity call (HSkMC),cytotoxicity call (HepG2),growth inhibition call (S. aureus RN4220)
C[C@@H]1CCCCO[C@H](CN(C)C(=O)CCC(F)(F)F)[C@H](C)CN([C@@H](C)CO)C(=O)c2cc(NC(=O)CCC(F)(F)F)ccc2O1,inactive,inactive,inactive
COc1ccc(CCNC(=O)[C@@H]2c3ccccc3C(=O)N(CC34CC5CC(CC(C5)C3)C4)[C@H]2c2ccc(CO)cc2)cc1,inactive,inactive,inactive
C[C@@H]1CN([C@H](C)CO)C(=O)Cc2cc(NC(=O)Nc3cccc4ccccc34)ccc2O[C@H]1CN(C)Cc1ccc(-c2ccccc2)cc1,inactive,inactive,inactive
C[C@@H]1CCCCO[C@@H](CN(C)C(=O)CCCN(C)C)[C@@H](C)CN([C@@H](C)CO)C(=O)c2cc(N(C)C)ccc2O1,inactive,inactive,inactive
COc1ccc(NC(=O)N(C)C[C@H]2OCCCC[C@@H](C)Oc3ccc(NS(=O)(=O)c4c(C)noc4C)cc3C(=O)N([C@H](C)CO)C[C@H]2C)cc1,inactive,inactive,inactive
CN1CCN(c2c(F)cc3c(=O)c(C(=O)O)cn4c3c2OCN4C)CC1,inactive,inactive,active
CN(C)S(=O)(=O)N1C[C@H]2C[C@H](C(=O)Nc3cccnc3)[C@@H](C1)O2,inactive,inactive,inactive
COc1ccc(NC(=O)Nc2cccc3c2O[C@@H](CN(C)Cc2ccc(Oc4ccccc4)cc2)[C@@H](C)CN([C@@H](C)CO)C3=O)cc1,inactive,active,inactive
Cn1nnc2c1CCN(C(=O)CS(C)(=O)=O)[C@@H]2COCC1CC1,inactive,inactive,inactive
